# In the supplement of paper PMC4166925:
# ± gives the standard deviation of the averaged measurements. In all, about 33,000 sequences were measured (“E-score (dimensionless, -0.5 to 0.5)”: median about -0.046, highest 2% from about 0.36 on). The list shows a part of the results.
# Tested on: T1, SpTbr T-box DNA-binding domain (GST fusion)
# T1 sequence: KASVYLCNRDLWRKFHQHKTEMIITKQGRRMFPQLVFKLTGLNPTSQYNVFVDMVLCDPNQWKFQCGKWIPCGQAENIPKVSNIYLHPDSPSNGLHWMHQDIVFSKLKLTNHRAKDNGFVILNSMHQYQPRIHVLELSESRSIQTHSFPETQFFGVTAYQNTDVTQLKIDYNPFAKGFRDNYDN
# Test: PBM E-score of 8-mer (E-score (dimensionless, -0.5 to 0.5)); Tbr is Tbrain of the sea star Patiria miniata (Pm) or the sea urchin Strongylocentrotus purpuratus (Sp); higher = stronger binding preference; most listed sequences are background and not binding sites
# Conditions: the construct has about 5 more residues each side
# Procedure: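 Universal protein-binding microarray (Agilent AMADID 016060, 60-bp probes with a 35-bp variable region) incubated with 200 nM GST-fused Strongylocentrotus purpuratus Tbr T-box DNA-binding domain (residues 362-554) in PBS pH 7.5. Scored for every ungapped 8-mer (given with its reverse complement) as E-score (range -0.5 to 0.5; >0.45 counts as bound) and Z-score of median probe intensity. Two replicate arrays (datasets 1 and 2).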
# 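Further: protein at 200 nM in PBS on universal double-stranded arrays.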
row,Sequence,PBM E-score of 8-mer
1,AGGTCTTC,-0.142 ± 0.053
2,GATCTTTA,0.017 ± 0.026
3,GACCACCA,-0.13 ± 0.0047
4,GTGCCCCA,-0.0876 ± 0.0044
5,AATTTCTA,-0.212 ± 0.046
6,AAACCCGG,-0.22 ± 0.045
7,TCAGACAA,-0.253 ± 0.014
8,CAGATAAA,-0.0966 ± 0.014
9,GGGCGATA,0.0321 ± 0.073
10,AATATCGG,-0.0749 ± 0.008
11,GTTGCCAA,0.202 ± 0.029
12,CGGTCTGA,-0.177 ± 0.0019
13,AATCGCAG,0.0391 ± 0.046
14,ATTCTGGA,-0.3349 ± 0.00046
15,CGAGGAAC,-0.0172 ± 0.03
16,AGAAATGC,-0.0483 ± 0.011
17,ACTATTAA,0.00251 ± 0.021
18,AAGCAGCA,-0.179 ± 0.014
19,ATTAGTCA,-0.0645 ± 0.04
20,CAGTTGGC,0.0384 ± 0.018
21,ACGCGATA,0.274 ± 0.014
22,GGCCATTA,-0.201 ± 0.0053
23,CGTGTACC,-0.0881 ± 0.032
24,CACATACG,0.134 ± 0.011
25,CACCGTTA,0.273 ± 0.015

row,Sequence,PBM E-score of 8-mer
1,AGGCTAAA,-0.205 ± 0.065
2,GTCTATGA,-0.0394 ± 0.079
3,CCGGCAAG,-0.0522 ± 0.069
4,AAATATTG,0.156 ± 0.0072
5,AAGGATCC,-0.247 ± 0.041
6,AATGATTA,0.0437 ± 0.042
7,GGCGACAC,0.381 ± 0.0043
8,CGTCTCGA,-0.229 ± 0.039
9,AGTTCATC,-0.00549 ± 0.034
10,AAGGATGT,-0.131 ± 0.091
11,GGCGGGTA,-0.0721 ± 0.048
12,CAAAACAA,-0.0399 ± 0.06
13,GACATTCC,-0.184 ± 0.032
14,AGGCGCTA,0.41 ± 0.023
15,CCGCCCAC,0.0475 ± 0.039
16,CACTCATG,0.137 ± 0.025
17,ACGCACAG,-0.0734 ± 0.02
18,CTTGCACC,0.278 ± 0.04
19,AAGGGCTA,-0.285 ± 0.0039
20,CGAGGATC,0.0468 ± 0.025
21,GGGTGACC,-0.0352 ± 0.046
22,CCTGGGAG,0.0895 ± 0.0077
23,AACGTTAC,-0.0506 ± 0.056
24,AACTATAC,-0.0681 ± 0.053
25,GCGATGCA,-0.0366 ± 0.034

row,Sequence,PBM E-score of 8-mer
1,GAAGATCA,-0.112 ± 0.028
2,CGAACAGA,0.0582 ± 0.028
3,ACCGACAT,-0.042 ± 0.038
4,GTCGCGAA,0.372 ± 0.025
5,ACCAAACC,0.185 ± 0.077
6,TATCCGAA,-0.311 ± 0.035
7,GAGAGCCA,0.0114 ± 0.059
8,CCGGGTTC,-0.071 ± 0.057
9,GCCAGGTA,0.0145 ± 0.079
10,CCAGGCTC,-0.277 ± 0.038
11,AAGATCAC,0.145 ± 0.058
12,CGCGCTTA,0.288 ± 0.0086
13,CATTTACA,0.209 ± 0.071
14,CTAGTTTA,-0.132 ± 0.14
15,AGGACGAG,-0.148 ± 0.052
16,ACTCATAT,0.00736 ± 0.051
17,AAAGTGGA,-0.0933 ± 0.021
18,GAGAGGCC,-0.066 ± 0.075
19,AATTGTGT,0.132 ± 0.052
20,GGTTGATA,-0.0354 ± 0.00093
21,ACTTGACG,0.251 ± 0.012
22,ACCCTCTG,0.0161 ± 0.013
23,CTTTGCGA,0.136 ± 0.0052
24,AAGGCCTA,-0.0978 ± 0.02
25,CGTGTTAG,0.332 ± 0.015

row,Sequence,PBM E-score of 8-mer
1,GCATGTTA,-0.0634 ± 0.0088
2,GAAAGGTC,-0.102 ± 0.033
3,ACGACGTA,-0.107 ± 0.01
4,ATACGGTG,-0.0108 ± 0.036
5,AACTACCT,-0.102 ± 0.011
6,GCGCAACA,0.141 ± 0.021
7,CCGGTAAC,0.115 ± 0.081
8,ACGATGCC,-0.0471 ± 0.083
9,ATCAACAA,0.152 ± 0.048
10,CTAAAGCC,-0.181 ± 0.012
11,ATAAGTTG,-0.182 ± 0.065
12,AGGAAGTG,0.272 ± 0.0086
13,GTACGTGA,0.132 ± 0.017
14,ATGAAATG,-0.191 ± 0.033
15,GGCTGAAC,-0.313 ± 0.045
16,GCGTCTTA,-0.0272 ± 0.028
17,CCGACACC,0.438 ± 0.0068
18,CTGTTCAA,-0.127 ± 0.0074
19,CACGCTTC,0.3583 ± 0.0029
20,CCCATTTC,-0.0689 ± 0.014
21,GTGCGCTA,-0.0713 ± 0.066
22,AAATAGCT,-0.162 ± 0.013
23,AAACGACT,0.113 ± 0.016
24,CTATCATA,-0.0311 ± 0.033
25,CAGCATCA,-0.204 ± 0.075

row,Sequence,PBM E-score of 8-mer
1,GCCATTTA,-0.029 ± 0.046
2,TATTTTGA,-0.0718 ± 0.011
3,CAAAGGCA,-0.134 ± 0.053
4,TCGTCCAA,-0.155 ± 0.016
5,ATGGGAAT,-0.095 ± 0.045
6,GCATGCCA,-0.00391 ± 0.16
7,ACTATACT,0.119 ± 0.0073
8,TTCCCCAA,-0.0683 ± 0.032
9,CAAGTTAA,-0.113 ± 0.091
10,CGGTACCC,-0.0829 ± 0.037
11,AACTGGCA,0.221 ± 0.012
12,CCGCATGC,-0.152 ± 0.11
13,CCCAGCAG,-0.115 ± 0.026
14,AACTCAAT,-0.284 ± 0.01
15,AACAATGG,-0.0828 ± 0.031
16,GCGAATAC,0.228 ± 0.018
17,TAGACAAA,-0.203 ± 0.012
18,CCAGGCCA,-0.259 ± 0.049
19,AATGTTCG,0.0235 ± 0.046
20,ATCTCTAG,0.0241 ± 0.017
21,ATACTTTA,-0.168 ± 0.053
22,CCGTCCCC,-0.155 ± 0.057
23,CTGCATAC,-0.169 ± 0.0072
24,AGAGCAGG,-0.135 ± 0.04
25,TATCGAGA,0.124 ± 0.014

row,Sequence,PBM E-score of 8-mer
1,CCCAGGGG,-0.157 ± 0.023
2,ACAAGACT,-0.0149 ± 0.097
3,GGTAGCCA,-0.105 ± 0.065
4,GGTTGCGA,0.266 ± 0.015
5,CGGGGTTA,-0.11 ± 0.027
6,AAGTTGCG,0.2806 ± 0.00023
7,AATGTTGC,0.0243 ± 0.044
8,ATAGCAAT,-0.0521 ± 0.0064
9,CCCGCTCC,0.0149 ± 0.04
10,CAGGCACG,-0.0364 ± 0.02
11,AGATTGGC,0.0293 ± 0.042
12,AAGGCCGC,0.048 ± 0.0025
13,CTTGATTA,0.0354 ± 0.099
14,CTATATCA,-0.11 ± 0.065
15,GGTGGACA,-0.0378 ± 0.056
16,AAATTCGG,-0.272 ± 0.023
17,ATAGAGTG,0.149 ± 0.022
18,ACGTTCGA,-0.0834 ± 0.035
19,AAAATGTA,0.11 ± 0.1
20,ATGACCAG,-0.0274 ± 0.0032
21,AGATGAAC,-0.238 ± 0.021
22,TAGGGAAA,-0.196 ± 0.0025
23,CTGTGTAA,-0.0574 ± 0.063
24,AATCATAT,-0.297 ± 0.02
25,CAGGATAC,-0.172 ± 0.016

row,Sequence,PBM E-score of 8-mer
1,CTTTCATA,-0.174 ± 0.21
2,AAGCCTCC,-0.00958 ± 0.029
3,GTGACAAC,0.4467 ± 0.0025
4,GCTAGAGA,0.0436 ± 0.031
5,AAAATAGG,-0.0106 ± 0.049
6,CCGGCGCC,0.194 ± 0.018
7,GAGATGAA,-0.124 ± 0.015
8,GAAAGACC,-0.0768 ± 0.03
9,CGACTCTC,-0.164 ± 0.033
10,ACGGTTCG,0.167 ± 0.032
11,CCGCCAAA,0.1 ± 0.039
12,AACTACAC,0.216 ± 0.061
13,CCACCCAG,-0.212 ± 0.031
14,TACACAAA,0.00389 ± 0.055
15,GCTCTTAA,-0.238 ± 0.0033
16,GGGGTAGA,-0.224 ± 0.021
17,CCTGTGAA,0.363 ± 0.011
18,GATAGTCA,0.0911 ± 0.041
19,GTATGGAA,-0.231 ± 0.034
20,AATAGCTA,-0.175 ± 0.0024
21,ATCTATAA,-0.0607 ± 0.029
22,AAAGCATA,-0.0354 ± 0.0091
23,GGGCTCCA,-0.332 ± 0.0097
24,CATATTCC,-0.0387 ± 0.034
25,CAGGTACA,-0.171 ± 0.016

row,Sequence,PBM E-score of 8-mer
1,CCCGGGGC,-0.263 ± 0.021
2,ATGTACAC,-0.0724 ± 0.02
3,GAACCATC,5e-06 ± 0.026
4,CACGCGGA,0.114 ± 0.052
5,CCCTGACG,-0.0523 ± 0.048
6,GCGGATAA,-0.0663 ± 0.071
7,AACTCAGT,-0.245 ± 0.0082
8,GACCAAAA,-0.133 ± 0.0068
9,CGGCTCAA,-0.251 ± 0.049
10,TCACCTCA,0.387 ± 0.0086
11,TATTGTAA,0.00715 ± 0.023
12,GGATTCAC,0.159 ± 0.037
13,ATTGGCTG,-0.162 ± 0.039
14,AGGCCTCC,-0.145 ± 0.03
15,GCTAACCA,0.157 ± 0.0061
16,AGCCCTAG,-0.0534 ± 0.036
17,ATGCTAAT,0.00238 ± 0.0093
18,CATTAAAA,-0.217 ± 0.079
19,CGTGATGA,0.243 ± 0.068
20,GAGCTTAC,-0.0865 ± 0.055
21,GGAGGCCC,-0.4444 ± 0.004
22,CGCCGGGC,0.0236 ± 0.022
23,AAGTCGCT,0.212 ± 0.069
24,CTTCGAGC,0.0221 ± 0.078
25,AAAATCTC,-0.00039 ± 0.027

row,Sequence,PBM E-score of 8-mer
1,CTGACCAC,0.0737 ± 0.024
2,GCCAAGAC,-0.0449 ± 0.068
3,ATTCGCCA,0.235 ± 0.015
4,CCAAACTC,-0.216 ± 0.035
5,AACGCTCG,0.133 ± 0.095
6,GATGGGGC,-0.232 ± 0.027
7,CGACCTAC,-0.028 ± 0.012
8,ACCCGCGC,0.163 ± 0.0027
9,GGCCTACA,-0.158 ± 0.0037
10,CCGTACAG,-0.251 ± 0.01
11,AAAATCGC,0.143 ± 0.047
12,CGGGGAAC,-0.248 ± 0.0031
13,CTGTTCGC,0.322 ± 0.013
14,GTTACTAA,-0.0296 ± 0.097
15,GCCCACCC,-0.095 ± 0.098
16,CTGGGGTA,-0.168 ± 0.017
17,ATACCGTA,-0.0826 ± 0.059
18,GTCGGGTA,0.057 ± 0.035
19,GGGTCTAA,0.088 ± 0.045
